# Laboratory results: PubChem BioAssay AID1745845 (National Center for Advancing Translational Sciences (NCATS), 2022)
# “And” between values parts separate entries of the source, which are not always exact repeats. Identical values can stand only once. Screen size: about 360,000 compounds; about 2,600 (0.72%) were called active. This list was built around the results that the source calls inconclusive (neither active nor inactive); the mix of calls is not that of the screen. Calls come from the whole dose curve; as a rule, active = well fitted inhibition curve with a large enough effect; inconclusive = small, poorly fitted or top-dose-only effect; inactive = no such curve, though single readings can be large or run the other way. Where the call is inconclusive, the potency comes from a doubtful curve fit.
# Test: Primary qHTS for Inhibitors of ATXN expression; note: nearly all actives have a fitted effect of over 55% in size
# Conditions: HEK-293 ATXN2-luciferase reporter, luminescence, 24 h; activity change, negative = inhibition: at 57 µM (top of the series)
# Procedure, shortened: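 qHTS (up to 57 uM final) was run with 24 h compound exposure of reporter cells at 37 °C. Each well was multiplexed: SteadyGlo luminescence measured ATXN2-luciferase expression after a fluorogenic Gly-Phe-AFC viability readout (25 uM final).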
# % is set by controls: 0 for no effect and ±100 for the full control effect; potency is the fitted concentration of half-maximal effect; tags give direction and shape of the fitted curve.
SMILES,Potency,"activity change, negative = inhibition"
O=C(O)Cc1ccc(N2N=C(c3ccccc3)CC2=O)cc1,inactive,
Cc1cc(Cl)ccc1OCCCC(=O)NNC(=O)c1ccccc1O,"inconclusive: 12.6 µM [inhibitor, partial curve]",
Cc1cc(C(=O)NCCc2ccc(Cl)cc2)c2ccccc2n1,inactive,
Cc1ccc(-c2nnc(Nc3cccc(O)c3)c3ccccc23)cc1S(=O)(=O)NCCO,inactive,
CCOC(=O)C1CCN(CC(=O)Nc2c(C(=O)OC)[nH]c3ccc(Cl)cc23)CC1,"inconclusive: 11.2 µM [inhibitor, partial curve, poor fit]",
CN(c1nccc(=O)[nH]1)C1CCN(c2nc3ccccc3n2Cc2ccc(F)cc2)CC1,inactive,
CCCCCn1c(CN2CCN(c3cccc(Cl)c3)CC2)nc2c1c(=O)n(C)c(=O)n2C,"inconclusive: 22.4 µM [inhibitor, single point]",
Fc1ccc(Nc2nc(NCc3ccccc3)nc3ccsc23)cc1,"inconclusive: 31.6 µM [inhibitor, single point]",
O=C(Nc1ccc(N2CCN(C(=O)c3ccco3)CC2)c(Cl)c1)c1cccs1,"inconclusive: 31.6 µM [inhibitor, partial curve]",
OCCN(CCO)c1nc(N2CCCCC2)c2nc(N(CCO)CCO)nc(N3CCCCC3)c2n1,"inconclusive: 24.3 µM [inhibitor, partial curve] and inconclusive: 20 µM [inhibitor, full curve] and inconclusive: 39.8 µM [inhibitor, partial curve, poor fit]",
Cc1ccc(-n2cc(CNCCCn3cccn3)c(-c3cccc(C)c3)n2)cc1,active: 31.6 µM,
COc1ccccc1/C=C/C=N/n1c(-c2ccc(C)cc2)n[nH]c1=S,inactive,
COc1ccc(/C=C/C(=O)c2ccc(O)cc2)cc1COc1ccc(F)cc1,"inconclusive: 22.4 µM [inhibitor, single point]",
CC1C(=O)N(Cc2cn(CCC3OCCO3)nn2)CCS(=O)(=O)N1Cc1ccc(-c2ccc(Cl)cc2)cc1 (stereo unspecified),"inconclusive: 22.4 µM [inhibitor, single point]",
Cc1cc(C(=O)CN2C(=O)c3ccccc3S2(=O)=O)c(C)n1C(C)C,active: 5.01 µM,
Cc1ccc(-c2cnc(C3CC3)o2)cc1S(=O)(=O)Nc1cccc(C#N)c1,"inconclusive: 20 µM [inhibitor, single point]",
O=c1cc(CN2CCN(c3ccc(F)cc3)CC2)c2cc3c(cc2o1)CCCC3,"inconclusive: 28.2 µM [inhibitor, single point]",
CCCC(C(=O)NCc1ccco1)N(C(=O)CNS(=O)(=O)c1ccc(Cl)cc1)C1CCCC1 (stereo unspecified),inactive,
O=C(Cn1ncc2c1-c1ccccc1OC2)Nc1cccc(Cl)c1,"inconclusive: 29.9 µM [inhibitor, single point]",
COc1ccc(CNC(=O)CCCC(=O)n2nc(C)c3ccccc32)cc1,inactive,
CC[C@@H]1[C@H]2CCCC(=O)N3CC[C@@H](C[C@@H]1OC(=O)Nc1ccccc1)[C@@H]23,inactive,

SMILES,Potency,"activity change, negative = inhibition"
CC(C)C(=O)N1CCN(c2ccccc2NC(=O)c2ccc([N+](=O)[O-])o2)CC1,"inconclusive: 15.8 µM [inhibitor, partial curve, poor fit]",
Cc1ccc(NC(=O)c2cccc(C(C)(C)C#N)c2)cc1Nc1ccc2ncn(C)c(=O)c2c1,"inconclusive: 27.3 µM [inhibitor, partial curve, poor fit]",
COc1cccc(C(C)(O)c2nc(-c3cccc(C(C)C)c3)cs2)c1 (stereo unspecified),"inconclusive: 35.5 µM [inhibitor, partial curve, poor fit]",
COc1cccc(Nc2nc(NCC3CCCO3)c3ccccc3n2)c1 (stereo unspecified),"inconclusive: 31.6 µM [inhibitor, partial curve, poor fit]",
COc1cc2c(cc1OC)CN(C(=O)/C=C/c1cccs1)CC2,"inconclusive: 1.68 µM [inhibitor, full curve, poor fit]",
CC[C@H](CO)Nc1nc(NCc2ccccc2)c2ncn(C(C)C)c2n1,active: 24.3 µM,
N=c1n(CCN2CCCCC2)c2ccccc2n1CC(=O)c1cccc([N+](=O)[O-])c1,,inconclusive: -48.7% [inhibitor]
CCOC(=O)c1ccc(NC(=O)CN2C(=O)C(C)(C)c3ccccc32)cc1,inactive,
Cc1ccc(OCc2cc(C(=O)N(C)Cc3cnc4ccccn34)no2)cc1C,"inconclusive: 25.1 µM [inhibitor, single point]",
Cc1ccc(C(C(=O)NCc2ccco2)N(C(=O)CNC(=O)c2cccs2)c2c(C)cccc2C)cc1 (stereo unspecified),inactive,
Nc1ccccc1-c1nnc(SCC(=O)Nc2ccccc2OC(F)F)[nH]c1=O,inactive,
Cc1ccc(CCNC(=O)c2cc(-c3ccccc3)n[nH]2)cc1,"inconclusive: 15.8 µM [inhibitor, partial curve, poor fit]",
CCc1ccc(NC(=O)CSc2ccc(-c3sc(C)nc3C)nn2)cc1,"inconclusive: 10 µM [inhibitor, partial curve, poor fit]",
O=C(CCCN1C(=O)/C(=C/c2ccc3c(c2)OCO3)SC1=S)Nc1ccc(C(=O)O)cc1,"inconclusive: 28.2 µM [inhibitor, partial curve, poor fit]",
CCc1nc2c(OCc3cc(Cl)cc(Cl)c3)cccn2c1N(C=O)Cc1ccc(OC)cc1,"inconclusive: 35.5 µM [inhibitor, single point]",
CCc1ccccc1Nc1nn2c(=O)c3ccc(C(=O)NC4CCC(C)CC4)cc3nc2s1 (stereo unspecified),"inconclusive: 14.1 µM [inhibitor, partial curve, poor fit]",
Nc1n[nH]c(N)c1N=Nc1ccccc1,inactive,
COC(=O)/C=C\C(C#N)(C#N)N=Cc1ccc(OC)cc1,"inconclusive: 39.8 µM [inhibitor, single point]",
Cc1ccc(Cl)cc1-c1cc(C(=O)NCc2cc(C(F)(F)F)cc(C(F)(F)F)c2)[nH]n1,"inconclusive: 35.5 µM [inhibitor, single point]",
COc1ccc(-n2ccnc2SCC(=O)Nc2cc(C)on2)cc1,inactive,
